# Experimental data: the supplement of paper PMC4166925
# ± gives the standard deviation of the averaged measurements. The full ranking holds about 33,000 sequences; the median of “E-score (dimensionless, -0.5 to 0.5)” is about -0.049, and the highest 2% start at about 0.37. The list shows a part of the results.
# Test system: T1, PmTbr T-box DNA-binding domain (GST fusion)
# T1 sequence: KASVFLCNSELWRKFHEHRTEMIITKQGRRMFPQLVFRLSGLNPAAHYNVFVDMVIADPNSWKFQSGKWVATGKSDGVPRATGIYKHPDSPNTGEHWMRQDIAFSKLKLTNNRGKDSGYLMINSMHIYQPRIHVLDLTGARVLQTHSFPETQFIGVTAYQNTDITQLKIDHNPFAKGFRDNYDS
# Assay: PBM E-score of 8-mer (E-score (dimensionless, -0.5 to 0.5)); Tbr is Tbrain of the sea star Patiria miniata (Pm) or the sea urchin Strongylocentrotus purpuratus (Sp); higher = stronger binding preference; most listed sequences are background and not binding sites
# Conditions: the construct has about 5 more residues each side
# How it was run: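 GST-fused Tbr T-box DNA-binding domains (the whole T-box plus about five flanking residues) were expressed in BL21 E. coli at 20 °C and purified by glutathione affinity chromatography. Universal Agilent oligonucleotide arrays were made double-stranded by primer extension, incubated with 200 nM protein in PBS (pH 7.5), then scanned and quantified. Every ungapped 8-mer was scored from probe intensities. The Universal PBM Analysis Suite gave each word an enrichment E-score, averaged over duplicate arrays.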
row,Sequence,PBM E-score of 8-mer
1,CAGGTCCG,-0.106 ± 0.012
2,CCGGTCCA,-0.104 ± 0.064
3,AGCTTAGG,-0.133 ± 0.053
4,GACAGTTA,0.187 ± 0.022
5,AGATCACG,-0.037 ± 0.03
6,AGAACTGC,0.0138 ± 0.07
7,TCCGCGAA,0.264 ± 0.014
8,TCACTAAA,0.147 ± 0.033
9,CGACTAAA,-0.106 ± 0.065
10,AGCACAGG,-0.235 ± 0.023
11,ATCACGAA,-0.0885 ± 0.085
12,AAATAAAG,-0.173 ± 0.077
13,ACCTCGAT,0.206 ± 0.017
14,AAGACAGG,-0.0738 ± 0.047
15,CTTTATGA,-0.00777 ± 0.018
16,GAGAGTCC,-0.178 ± 0.043
17,AAAAGCGG,-0.261 ± 0.1
18,AATTGTAG,-0.224 ± 0.13
19,CCGCGAAG,0.282 ± 0.029
20,CGACGCCA,0.1 ± 0.034
21,AGTGTCCA,-0.00597 ± 0.011
22,AAACGGAT,-0.124 ± 0.045

row,Sequence,PBM E-score of 8-mer
1,GCCGAATA,-0.0806 ± 0.036
2,GCACTTAA,0.254 ± 0.025
3,ACCTGACT,-0.0124 ± 0.032
4,CCGTCTAC,-0.179 ± 0.053
5,CTTTCAAA,-0.147 ± 0.036
6,ATTGCTCG,-0.0286 ± 0.034
7,CCGAGGCA,-0.133 ± 0.049
8,CACGCCTC,0.361 ± 0.0085
9,ACGCAGTC,-0.148 ± 0.059
10,GGCTACGA,-0.103 ± 0.078
11,AGGACCCA,-0.152 ± 0.054
12,CCATGCGC,-0.121 ± 0.11
13,AATTGGAC,-0.191 ± 0.0088
14,AATGTACA,-0.164 ± 0.0098
15,CCTAGTAA,0.0527 ± 0.056
16,CATCATCC,-0.208 ± 0.038
17,GGTGCACC,-0.189 ± 0.13
18,CAGAATCA,-0.0423 ± 0.097
19,AACTATAG,-0.14 ± 0.093
20,CTCGACCA,-0.0639 ± 0.019
21,GTTCTTAA,-0.204 ± 0.026
22,CTTTCTGC,0.0111 ± 0.011

row,Sequence,PBM E-score of 8-mer
1,CTTAATCC,-0.106 ± 0.034
2,CATCGGTA,-0.0771 ± 0.098
3,GCAGTCCC,-0.103 ± 0.08
4,GGGGTGAA,0.0941 ± 0.04
5,ATTGGTGG,0.155 ± 0.063
6,ACGTACAT,0.0904 ± 0.023
7,GTCATAGA,-0.118 ± 0.0043
8,CCGTGAAG,0.153 ± 0.011
9,CGCTCAAG,-0.196 ± 0.068
10,TCCCAACA,0.187 ± 0.057
11,CCTCAACA,-0.0516 ± 0.063
12,ACCCAGTC,-0.234 ± 0.046
13,CGAAGCAA,0.0452 ± 0.014
14,CAGTTCCA,-0.091 ± 0.0048
15,CACACTGC,0.168 ± 0.039
16,AGTCCTAT,-0.257 ± 0.058
17,CGAACCAA,-0.0599 ± 0.095
18,AAAGTTCG,-0.0669 ± 0.016
19,GGACTTAA,-0.202 ± 0.013
20,CCCGCGAG,0.243 ± 0.058
21,AAAATCAC,0.28 ± 0.04
22,AAGGTGAA,0.185 ± 0.013

row,Sequence,PBM E-score of 8-mer
1,AGTCAAGA,-0.165 ± 0.048
2,GTAGAAAC,-0.211 ± 0.011
3,ATTTGCTA,0.224 ± 0.081
4,AAAATTTT,0.16 ± 0.14
5,AACCGTAG,-0.116 ± 0.056
6,CGAAAAAA,0.00041 ± 0.062
7,CTTACCTC,0.044 ± 0.013
8,ACGCTGCG,0.0804 ± 0.011
9,ATCCCAGC,-0.157 ± 0.078
10,TCAGAGGA,0.0312 ± 0.088
11,CGCTGCAG,-0.0899 ± 0.024
12,AAGTAGTC,-0.235 ± 0.039
13,CAAGGCCG,-0.0395 ± 0.021
14,GATGTTAC,0.0974 ± 0.051
15,AGCCACTC,-0.255 ± 0.025
16,GGCATAGA,-0.227 ± 0.0031
17,CGTCCCTC,-0.219 ± 0.054
18,CCGTTTCC,-0.0135 ± 0.022
19,AAGTGGCT,0.0687 ± 0.0083
20,GCAGACTA,-0.14 ± 0.053
21,GGGATGGA,-0.276 ± 0.027
22,TAACGTGA,0.173 ± 0.041

row,Sequence,PBM E-score of 8-mer
1,CCGAAAGC,-0.0489 ± 0.072
2,CATGTTCG,-0.0838 ± 0.11
3,GCATATCA,-0.00379 ± 0.037
4,GCCTTTCC,-0.0329 ± 0.075
5,GGAAACCC,-0.112 ± 0.033
6,GCGTTAAA,0.3 ± 0.0074
7,AAACCAAT,-0.223 ± 0.043
8,CAGCTAAA,-0.0925 ± 0.0072
9,CAACATGA,0.0353 ± 0.044
10,AGCAGTAT,-0.068 ± 0.0045
11,AACGTATT,0.0326 ± 0.037
12,GGGGAGAC,-0.0476 ± 0.015
13,CTTCACGC,0.356 ± 0.04
14,ATCCACTA,-0.27 ± 0.044
15,CTCCCGAA,-0.251 ± 0.045
16,CACAGTGC,0.0691 ± 0.06
17,AACTCAGA,-0.0319 ± 0.013
18,AAAATGCA,-0.0355 ± 0.00049
19,CCTTTCCG,-0.156 ± 0.035
20,AACGTGAT,0.153 ± 0.12
21,CCGATTGA,-0.135 ± 0.075
22,CCATGGCG,-0.319 ± 0.066
